Assay results reported in PMC7029945.
These are yes or no findings as the source states them, for the method shown. For some assays here: In cells and extracts the contact can be indirect. Some binding calls cover weakened binding; strength is not graded here. For some assays here: Where a sequence is shown, tags or fusion partners need not be part of it.

By UniProt entry, the sequences of proteins in these tests, tags left out. Where a name states a change or a piece, a line headed by the entry shows the natural chain unless it says otherwise. Residues count along the entry.
UniProt P15976, residues 201-313: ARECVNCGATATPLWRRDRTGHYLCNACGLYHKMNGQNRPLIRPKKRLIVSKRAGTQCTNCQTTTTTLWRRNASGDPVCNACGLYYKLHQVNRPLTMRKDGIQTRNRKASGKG
UniProt P17542: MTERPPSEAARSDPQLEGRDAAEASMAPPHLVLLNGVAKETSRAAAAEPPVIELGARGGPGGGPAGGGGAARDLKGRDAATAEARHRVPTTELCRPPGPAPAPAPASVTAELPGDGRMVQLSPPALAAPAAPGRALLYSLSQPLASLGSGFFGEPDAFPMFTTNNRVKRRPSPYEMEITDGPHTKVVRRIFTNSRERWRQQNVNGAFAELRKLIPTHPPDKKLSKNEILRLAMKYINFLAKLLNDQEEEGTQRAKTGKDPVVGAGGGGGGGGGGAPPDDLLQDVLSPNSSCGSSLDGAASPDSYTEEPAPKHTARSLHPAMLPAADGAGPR
UniProt P15923: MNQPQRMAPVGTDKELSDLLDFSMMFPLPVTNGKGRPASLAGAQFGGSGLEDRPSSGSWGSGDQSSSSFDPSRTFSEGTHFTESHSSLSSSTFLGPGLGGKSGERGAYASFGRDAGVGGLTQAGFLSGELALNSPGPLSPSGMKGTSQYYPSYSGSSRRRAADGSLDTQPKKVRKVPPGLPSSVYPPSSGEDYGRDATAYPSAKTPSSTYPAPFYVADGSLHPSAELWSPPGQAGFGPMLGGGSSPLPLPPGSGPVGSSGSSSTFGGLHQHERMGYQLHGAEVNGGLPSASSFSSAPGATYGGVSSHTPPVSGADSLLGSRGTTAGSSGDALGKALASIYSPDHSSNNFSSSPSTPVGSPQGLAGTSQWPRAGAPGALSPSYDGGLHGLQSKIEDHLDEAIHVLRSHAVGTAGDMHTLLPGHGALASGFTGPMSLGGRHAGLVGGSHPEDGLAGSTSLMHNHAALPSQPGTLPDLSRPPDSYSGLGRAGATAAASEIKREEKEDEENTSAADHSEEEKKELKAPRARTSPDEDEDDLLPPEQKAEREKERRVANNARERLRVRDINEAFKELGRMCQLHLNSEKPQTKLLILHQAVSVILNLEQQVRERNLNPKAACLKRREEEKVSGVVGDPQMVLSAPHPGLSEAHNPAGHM
UniProt P22091: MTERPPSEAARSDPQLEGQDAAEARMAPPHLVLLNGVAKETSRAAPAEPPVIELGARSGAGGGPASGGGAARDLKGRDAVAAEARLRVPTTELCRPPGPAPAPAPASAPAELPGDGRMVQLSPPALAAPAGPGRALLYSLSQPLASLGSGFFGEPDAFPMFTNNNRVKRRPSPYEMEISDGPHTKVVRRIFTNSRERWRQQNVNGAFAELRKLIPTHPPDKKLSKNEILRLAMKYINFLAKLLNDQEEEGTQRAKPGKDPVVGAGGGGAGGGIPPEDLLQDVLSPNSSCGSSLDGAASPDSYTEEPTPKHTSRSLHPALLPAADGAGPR
UniProt P17679: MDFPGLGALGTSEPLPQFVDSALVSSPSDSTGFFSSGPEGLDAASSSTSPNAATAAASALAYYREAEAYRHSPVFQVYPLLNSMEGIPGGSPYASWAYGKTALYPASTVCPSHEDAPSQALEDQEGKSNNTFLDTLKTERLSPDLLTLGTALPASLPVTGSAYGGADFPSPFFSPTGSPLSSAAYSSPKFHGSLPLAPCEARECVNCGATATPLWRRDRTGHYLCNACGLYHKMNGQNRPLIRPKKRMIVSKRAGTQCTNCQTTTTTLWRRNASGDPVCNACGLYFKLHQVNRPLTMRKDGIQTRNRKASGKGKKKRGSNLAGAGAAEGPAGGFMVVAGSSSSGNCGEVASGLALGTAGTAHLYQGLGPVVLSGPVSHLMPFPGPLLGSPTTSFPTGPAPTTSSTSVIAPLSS

How the values were obtained:
[1] = molecular target: JARID1A (mouse (endogenous in MEL)) (UniProt Q3UXZ9); experiment: co-IP; nuclear extracts of undifferentiated MEL cells, endogenous proteins; IP with antibodies against JARID1A or against the components of the pentameric complex on protein G Dynabeads, overnight at 4°C, 150 mM NaCl, 0.3% NP-40; immunoblot
[2] = molecular target: GATA1NFCF (201-313) (human) (UniProt P15976); experiment: AUC; sedimentation velocity, 20°C, proteins at 0.04 mM, equimolar mixtures, 50 mM HEPES pH 8, 200 mM NaCl, 1 mM DTT; apparent sedimentation coefficients, c(s) and c(s,f/f0) analysis; both purified
[3] = molecular target: SCL(180-253)/E47(535-613) bHLH (human) (UniProt P17542+P15923); experiment: as above

| binding [1] | binding [2] | binding [3] | Molecule |
| --- | --- | --- | --- |
| binds | – | – | SCL (from UniProt P22091 1-329) |
| – | binds | – | His-tag PHD2 domain of JARID1A (domain or fragment, UniProt Q3UXZ9 1156-1222) ERIEEVKFCICRKTASGFMLQCELCKDWFHNSCVPLPKSSSQKKGSSWQAKDVKFLCPLCMRSRRPR |

Continued, molecule first:

| Molecule | binding [1] | binding [2] | binding [3] |
| --- | --- | --- | --- |
| GATA1 (from UniProt P17679 1-413) | binds | – | – |
| GST PHD3 (1608-1659) of JARID1A (domain or fragment, UniProt Q3UXZ9 1608-1659) AVCAAQNCQRPCKDKVDWVQCDGGCDEWFHQVCVGVSAEMAENEDYICINCA | – | no binding (tested: 0.04 mM) | no binding (tested: 0.04 mM) |
| GST PHD1 (282-360) of JARID1A (domain or fragment, UniProt Q3UXZ9 282-360) RKGTLSVNFVDLYVCMFCGRGNNEDKLLLCDGCDDSYHTFCLLPPLPDVPKGDWRCPKCVAEECNKPREAFGFEQAVRE | – | no binding (tested: 0.04 mM) | – |
| GST PHD2 (1156-1222) of JARID1A (domain or fragment, UniProt Q3UXZ9 1156-1222) ERIEEVKFCICRKTASGFMLQCELCKDWFHNSCVPLPKSSSQKKGSSWQAKDVKFLCPLCMRSRRPR | – | binds | no binding (tested: 0.04 mM) |
